According to publication PMC8215545:
Where two headings read alike, the source gives them in different places. These are yes or no findings as the source states them, for the method shown. In cells and extracts the contact can be indirect. Some entries that bind do so weakly or less than the wild type. For some assays here: Sequences can lack the tags named with a protein. Blank lines part the entries; values can stand above or below the molecule they belong to.

By UniProt entry, the sequences of proteins in these tests, tags left out.
UniProt O14543: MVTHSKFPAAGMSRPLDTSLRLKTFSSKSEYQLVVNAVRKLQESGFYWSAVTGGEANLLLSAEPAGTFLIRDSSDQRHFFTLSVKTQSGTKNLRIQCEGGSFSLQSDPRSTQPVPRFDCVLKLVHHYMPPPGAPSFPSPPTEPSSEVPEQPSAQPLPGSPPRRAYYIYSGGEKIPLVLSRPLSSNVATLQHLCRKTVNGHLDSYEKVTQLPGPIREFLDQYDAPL

Columns and labels:
[1] = molecular target: T1, FLAG-ASB6 wild type (human) (UniProt Q9NWX5); test: co-IP; HEK293T cells transfected with the indicated plasmids, treated with 10 μM MG132 for 10 h; lysis in EBC buffer; anti-FLAG M2 or anti-HA agarose beads 3 h, washed five times with NETN buffer; immunoblot
T1 sequence: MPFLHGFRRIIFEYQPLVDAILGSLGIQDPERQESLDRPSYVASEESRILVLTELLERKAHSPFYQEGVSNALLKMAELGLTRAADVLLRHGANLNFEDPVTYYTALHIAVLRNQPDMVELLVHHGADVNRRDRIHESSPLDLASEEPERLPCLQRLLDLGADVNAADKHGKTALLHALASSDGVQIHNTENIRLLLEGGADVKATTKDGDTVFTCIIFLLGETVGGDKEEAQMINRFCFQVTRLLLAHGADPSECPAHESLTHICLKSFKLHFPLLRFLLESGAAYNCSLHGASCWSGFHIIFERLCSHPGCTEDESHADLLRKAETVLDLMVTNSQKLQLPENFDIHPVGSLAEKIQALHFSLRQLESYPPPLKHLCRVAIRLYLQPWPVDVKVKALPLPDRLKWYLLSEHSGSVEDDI

[2] = molecular target: FLAG-EloC (Elongin C) (human) (UniProt Q15369); test: as above
[3] = molecular target: FLAG-EloB (Elongin B) (human) (UniProt Q15370); test: as above
[4] = molecular target: SOCS3 (UniProt O14543); test: as above
[5] = molecular target: T2, SOCS6 (UniProt O14544); test: as above
T2 sequence: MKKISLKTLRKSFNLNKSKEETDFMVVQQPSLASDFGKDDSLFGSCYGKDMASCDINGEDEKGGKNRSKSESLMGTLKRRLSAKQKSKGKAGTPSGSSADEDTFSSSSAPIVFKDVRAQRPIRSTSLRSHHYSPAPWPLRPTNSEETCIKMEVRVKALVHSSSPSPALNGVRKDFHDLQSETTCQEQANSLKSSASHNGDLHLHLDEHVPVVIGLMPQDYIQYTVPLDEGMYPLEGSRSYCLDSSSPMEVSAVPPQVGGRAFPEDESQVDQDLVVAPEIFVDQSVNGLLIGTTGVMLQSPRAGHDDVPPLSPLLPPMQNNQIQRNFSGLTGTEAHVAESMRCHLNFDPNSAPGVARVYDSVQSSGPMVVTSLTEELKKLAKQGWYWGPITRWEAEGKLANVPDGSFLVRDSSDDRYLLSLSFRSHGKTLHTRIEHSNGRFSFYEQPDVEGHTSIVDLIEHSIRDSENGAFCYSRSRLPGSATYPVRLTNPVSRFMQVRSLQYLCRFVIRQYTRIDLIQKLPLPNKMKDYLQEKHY

[6] = molecular target: T3, endogenous ASB6 (Huh1 cells) (human (endogenous in Huh1)) (UniProt Q9NWX5); test: co-IP; endogenous proteins; Huh1 cells treated with 10 μM MG132 for 10 h, whole-cell lysate; ASB6 antibody for IP, Rabbit IgG as negative control; immunoblot
T3 sequence: T1 sequence

[7] = molecular target: HA-CUL5 (Cullin5) (human) (UniProt Q93034); test: co-IP; HEK293T cells transfected with the indicated plasmids, treated with 10 μM MG132 for 10 h; lysis in EBC buffer; anti-FLAG M2 or anti-HA agarose beads 3 h, washed five times with NETN buffer; immunoblot
[8] = molecular target: FLAG-EloC (Elongin C) (human) (UniProt Q15369); test: as above; remark: listed apart in the source
[9] = molecular target: FLAG-EloB (Elongin B) (human) (UniProt Q15370); test: as above; remark: listed apart in the source

- binding [1]: binds
Molecule: HA-CUL5 (Cullin5) (from UniProt Q93034 1-780)

- binding [2]: binds
- binding [3]: binds
- binding [1]: binds
- binding [4]: no binding
- binding [5]: no binding
Molecule: HA-p62 (p62/SQSTM1, sequestosome-1, 440 amino acid isoform) (from UniProt Q13501 1-440)

- binding [6]: binds
Molecule: endogenous p62/SQSTM1 (Huh1 cells) (from UniProt Q13501 1-440)

- binding [1]: binds
- binding [7]: binds
Molecule: p62S (shorter p62 isoform, 356 aa, lacks the N-terminal PB1 domain) (from UniProt Q13501-2 1-356)

- binding [8]: binds
- binding [9]: binds
B1: HA-ASB6 (protein, UniProt Q9NWX5 1-421)
chain: T1 sequence
